Measurements taken from patent publication US11000038B2, “Pyridone compounds and agricultural and horticultural fungicides containing the same as active ingredients” (priority 2017, dated 2021).

Assays:
[1] = tested on: barley powdery mildew fungi (Blumeria graminis f. sp. hordei); assay: Test Example D: barley powdery mildew, spray treatment of barley plants; conditions: for pest or weed control at 250 µg/mL: Blumeria graminis, in Hordeum vulgare, read-out: Test D control value class (barley powdery mildew); for Test D control value class (barley powdery mildew) / Test D control value: spray treatment of barley plants; for Test D control value class (barley powdery mildew): control value=100{1-(n/3)}; for Test D control value: barley powdery mildew
[2] = tested on: wheat brown rust fungi (Puccinia recondita); assay: Test Example E: wheat brown rust, spray treatment of wheat plants; assay type: in vivo; conditions: spray treatment of wheat plants; for Test E control value class (wheat brown rust): control value=100{1-(n/3)}; for Test E control value: wheat brown rust
[3] = tested on: gray mold fungi (Botrytis cinerea); assay: Test Example B: tomato gray mold, spray treatment of tomato plants; conditions: spray treatment of tomato plants; for Test B control value class (tomato gray mold): control value=100{1-(n/3)}; for Test B control value: tomato gray mold
[4] = tested on: grape downy mildew fungus (Plasmopara viticola); assay: Test Example G: grape downy mildew, spray treatment of grape plants; conditions: for Test G control value class (grape downy mildew): 250 ppm spray, 2.5 ml/pot, grape Neomuscat, 7 to 10 days from inoculation; for Test G control value: grape downy mildew, 250 ppm spray (2.5 ml/pot), 7 to 10 days after inoculation

In the case of O=c1c(Br)cn(-c2ccccc2Cl)c(-c2c(F)cc(F)cc2F)c1Br [Compound 1, 3,5-dibromo-1-(2-chlorophenyl)-2-(2,4,6-trifluorophenyl)pyridin-4(1H)-one], the pest or weed control at 250 µg/mL [1] is reported as > 50%.
With O=c1c(Br)cn(-c2ccccc2Cl)c(-c2c(F)cc(F)cc2F)c1Cl [Compound 2, 5-bromo-3-chloro-1-(2-chlorophenyl)-2-(2,4,6-trifluorophenyl)pyridin-4(1H)-one] the pest or weed control at 250 µg/mL [1] was > 50%.
In the case of O=c1c(Cl)cn(-c2ccccc2Cl)c(-c2c(F)cc(F)cc2F)c1Br [Compound 3], the “Test E control value class (wheat brown rust)” value (“Test E control value class” for short) [2] is reported as “H (H shows the control value of more than 50%)”, the “Test B control value class (tomato gray mold)” value (“Test B control value class” for short) [3] is reported as “H (H shows the control value of more than 50%)” and the “Test G control value class (grape downy mildew)” value (“Test G control value class” for short) [4] is reported as “H (H shows the control value of more than 50%)”. For the same molecule, the “Test D control value class (barley powdery mildew)” value (shortened to “Test D control value class”) [1] was “H (H shows the control value of more than 50%)”.
For O=c1c(Cl)cn(-c2ccccc2Cl)c(-c2c(F)cc(F)cc2F)c1Cl [Compound 4, 3,5-dichloro-1-(2-chlorophenyl)-2-(2,4,6-trifluorophenyl)pyridin-4(1H)-one], the pest or weed control at 250 µg/mL [1] was > 50%.
For COc1cc(F)c(-c2c(Cl)c(=O)c(Cl)cn2-c2ccccc2Cl)c(F)c1 [Compound 5, 3,5-dichloro-1-(2-chlorophenyl)-2-(2,6-difluoro-4-methoxyphenyl)pyridin-4(1H)-one], the pest or weed control at 250 µg/mL [1] was > 50%.
In the case of O=c1c(Br)cn(-c2ccccc2)c(-c2c(F)cc(F)cc2F)c1Cl [Compound 9], the “Test E control value class” value [2] is reported as “H (H shows the control value of more than 50%)”, the “Test B control value class” value [3] is reported as “H (H shows the control value of more than 50%)” and the “Test G control value class” value [4] is reported as “H (H shows the control value of more than 50%)”. The “Test D control value class” value [1] was “H (H shows the control value of more than 50%)”.
With O=c1c(Cl)cn(-c2ccccc2)c(-c2c(F)cc(F)cc2F)c1Br [Compound 15] the “Test G control value class” value [4] was “L (L shows the control value of 50% or less)”.
In the case of O=c1c(Br)cn(-c2cccnc2Cl)c(-c2c(F)cc(F)cc2F)c1Br [Compound 38, 3,5-dibromo-2′-chloro-2-(2,4,6-trifluorophenyl)-4H-[1,3′-bipyridin]-4-one], the pest or weed control at 250 µg/mL [1] is reported as > 50%.
With COc1cc(F)c(-c2c(Cl)c(=O)c(Br)cn2-c2cccnc2OC)c(F)c1 [Compound 40] the “Test G control value class” value [4] was “L (L shows the control value of 50% or less)”.
For O=c1c(Cl)cn(Cc2ccccc2)c(-c2c(F)cc(F)cc2F)c1Cl [Compound 48], the “Test E control value class” value [2] was “H (H shows the control value of more than 50%)”, the “Test B control value class” value [3] was “H (H shows the control value of more than 50%)” and the “Test G control value class” value [4] was “H (H shows the control value of more than 50%)”. The “Test D control value class” value [1] was “H (H shows the control value of more than 50%)”.
With O=c1c(Cl)cn(Cc2ccccc2)c(-c2c(F)cc(F)cc2F)c1Br [Compound 49, 1-benzyl-3-bromo-5-chloro-2-(2,4,6-trifluorophenyl)pyridin-4(1H)-one] the pest or weed control at 250 µg/mL [1] was > 50%.
In the case of Cc1ccccc1-n1cc(Br)c(=O)c(Br)c1-c1c(F)cc(F)cc1F [Compound 67], the “Test G control value class” value [4] is reported as “H (H shows the control value of more than 50%)”.
In the case of O=c1c(Br)cn(CCCC(F)(F)F)c(-c2c(F)cc(F)cc2F)c1Cl [Compound 71], the “Test G control value class” value [4] is reported as “L (L shows the control value of 50% or less)”.
For CC(c1ccccc1)n1cc(Cl)c(=O)c(Cl)c1-c1c(F)cc(F)cc1F (stereo not drawn) [Compound 74], the “Test G control value class” value [4] was “L (L shows the control value of 50% or less)”.
CC(C)Cn1cc(Br)c(=O)c(Br)c1-c1c(F)cc(F)cc1F [Compound 116] was tested, and the “Test E control value class” value [2] was “H (H shows the control value of more than 50%)”, the “Test B control value class” value [3] was “H (H shows the control value of more than 50%)” and the “Test G control value class” value [4] was “H (H shows the control value of more than 50%)”. For the same molecule, the “Test D control value class” value [1] was “H (H shows the control value of more than 50%)”.
For Cc1cc(-n2cc(Cl)c(=O)c(Br)c2-c2c(F)cc(F)cc2F)no1 [Compound 141, 3-bromo-5-chloro-1-(5-methylisoxazol-3-yl)-2-(2,4,6-trifluorophenyl)pyridin-4(1H)-one], the pest or weed control at 250 µg/mL [1] was < 50%.
Cc1onc(-n2cc(Cl)c(=O)c(Br)c2-c2c(F)cc(F)cc2F)c1Br [Compound 142, 3-bromo-1-(4-bromo-5-methylisoxazol-3-yl)-5-chloro-2-(2,4,6-trifluorophenyl)pyridin-4(1H)-one] was tested, and the pest or weed control at 250 µg/mL [1] was > 50%.
With CCC(C)Cn1cc(Cl)c(=O)c(Cl)c1-c1c(F)cc(F)cc1F (stereo not drawn) [Compound 162, 3,5-dichloro-1-(2-methylbutyl)-2-(2,4,6-trifluorophenyl)pyridin-4(1H)-one] the pest or weed control at 250 µg/mL [1] was > 50%.
With CCC(C)Cn1cc(Cl)c(=O)c(Br)c1-c1c(F)cc(OC)cc1F (stereo not drawn) [Compound 168] the “Test G control value class” value [4] was “H (H shows the control value of more than 50%)”.
With Cc1ccccc1-n1cc(C)c(=O)c(C)c1-c1c(F)cc(F)cc1F [Compound 174, 3,5-dimethyl-1-(o-toluyl)-2-(2,4,6-trifluorophenyl)pyridin-4(1H)-one] the pest or weed control at 250 µg/mL [1] was > 50%.
In the case of COc1cc(F)c(-c2c(C)c(=O)c(C)cn2-c2ccccc2C)c(F)c1 [Compound 175, 2-(2,6-difluoro-4-methoxyphenyl)-3,5-dimethyl-1-(o-toluyl)pyridin-4(1H)-one], the pest or weed control at 250 µg/mL [1] is reported as > 50%.
Cc1c(F)cccc1-n1cc(Cl)c(=O)c(Cl)c1-c1c(F)cc(F)cc1F [Compound 190] was tested, and the “Test G control value” [4] was “L (L shows the control value of 50% or less)” and the “Test D control value” [1] was “H (H shows the control value of more than 50%)”.
With Cc1c(-c2c(F)cc(F)cc2F)n(CC(C)C)cc(Br)c1=O [Compound 219] the “Test G control value” [4] was “H (H shows the control value of more than 50%)” and the “Test D control value” [1] was “H (H shows the control value of more than 50%)”.
Cc1c(-c2c(F)cc(F)cc2F)n(CC(C)C)cc(Cl)c1=O [Compound 223] was tested, and the “Test E control value” [2] was “H (H shows the control value of more than 50%)”, the “Test B control value” [3] was “H (H shows the control value of more than 50%)” and the “Test G control value” [4] was “H (H shows the control value of more than 50%)”. For the same molecule, the “Test D control value” [1] was “H (H shows the control value of more than 50%)”.
In the case of Cc1ccccc1-n1cc(C)c(=O)c(C)c1-c1ccc(C#N)cc1 [Compound 227], the “Test E control value” [2] is reported as “H (H shows the control value of more than 50%)”, the “Test B control value” [3] is reported as “L (L shows the control value of 50% or less)” and the “Test G control value” [4] is reported as “L (L shows the control value of 50% or less)”. For the same molecule, the “Test D control value” [1] was “L (L shows the control value of 50% or less)”.
With Cc1ccc(Cl)cc1-n1cc(Cl)c(=O)c(Cl)c1-c1c(F)cc(F)cc1F [Compound 241] the “Test E control value” [2] was “H (H shows the control value of more than 50%)”, the “Test B control value” [3] was “H (H shows the control value of more than 50%)” and the “Test G control value” [4] was “H (H shows the control value of more than 50%)”. For the same molecule, the “Test D control value” [1] was “H (H shows the control value of more than 50%)”.
Cc1ccccc1-n1cc(C)c(=O)c(C)c1-c1ccc(C(F)(F)F)cc1 [Compound 244] was tested, and the “Test G control value” [4] was “L (L shows the control value of 50% or less)” and the “Test D control value” [1] was “L (L shows the control value of 50% or less)”.
For Cc1ccc(Br)cc1-n1cc(Cl)c(=O)c(Cl)c1-c1c(F)cc(F)cc1F [Compound 250], the “Test G control value” [4] was “L (L shows the control value of 50% or less)” and the “Test D control value” [1] was “L (L shows the control value of 50% or less)”.
For CSc1ccc(-c2c(C)c(=O)c(C)cn2-c2ccccc2C)cc1 [Compound 254], the “Test E control value” [2] was “L (L shows the control value of 50% or less)”, the “Test B control value” [3] was “H (H shows the control value of more than 50%)” and the “Test G control value” [4] was “L (L shows the control value of 50% or less)”. For the same molecule, the “Test D control value” [1] was “L (L shows the control value of 50% or less)”.
For COc1ccc(-n2cc(Br)c(=O)c(Cl)c2-c2c(F)cc(F)cc2F)c(C)c1 [Compound 264], the “Test E control value” [2] was “H (H shows the control value of more than 50%)”, the “Test B control value” [3] was “H (H shows the control value of more than 50%)” and the “Test G control value” [4] was “H (H shows the control value of more than 50%)”. The “Test D control value” [1] was “H (H shows the control value of more than 50%)”.
In the case of Cc1ccccc1-n1cc(Cl)c(=O)c(C)c1-c1c(F)cc(F)cc1F [Compound 265], the “Test E control value” [2] is reported as “H (H shows the control value of more than 50%)”, the “Test B control value” [3] is reported as “H (H shows the control value of more than 50%)” and the “Test G control value” [4] is reported as “L (L shows the control value of 50% or less)”. For the same molecule, the “Test D control value” [1] was “H (H shows the control value of more than 50%)”.
With CSCn1cc(C)c(=O)c(C)c1-c1c(F)cc(F)cc1F [Compound 269] the “Test E control value” [2] was “H (H shows the control value of more than 50%)”, the “Test B control value” [3] was “H (H shows the control value of more than 50%)” and the “Test G control value” [4] was “L (L shows the control value of 50% or less)”. For the same molecule, the “Test D control value” [1] was “L (L shows the control value of 50% or less)”.
For Cc1cccc(F)c1-n1cc(Br)c(=O)c(Cl)c1-c1c(F)cc(F)cc1F [Compound 289], the “Test E control value” [2] was “H (H shows the control value of more than 50%)”, the “Test B control value” [3] was “L (L shows the control value of 50% or less)” and the “Test G control value” [4] was “L (L shows the control value of 50% or less)”. The “Test D control value” [1] was “L (L shows the control value of 50% or less)”.
With CCc1ccccc1-n1cc(C)c(=O)c(C)c1-c1c(F)cc(F)cc1F [Compound 326] the “Test G control value” [4] was “L (L shows the control value of 50% or less)” and the “Test D control value” [1] was “H (H shows the control value of more than 50%)”.
